According to the supplement of paper PMC10369915:
This is one part of the list. No stated cut-off is given here; in the data, active = 3.2 or more and inactive = the rest. Only a few entries rise above the background.

How the values were obtained:
Experiment in all cases: enrichment score (SH2-bound / input frequency) (ratio); bacterial display of known human phosphotyrosine sites (pTyr-Var adds point mutants) read by sequencing; higher = stronger binding; tyrosines were phosphorylated by kinases first
Conditions in all cases: peptide library: pTyr-Var
SHP2 C-SH2 domain E139D = target: SHP2 C-SH2 domain E139D
[1] = target: SHP2 C-SH2 domain wild-type
SHP2 N-SH2 domain L43F = target: SHP2 N-SH2 domain L43F
SHP2 N-SH2 domain T42A = target: SHP2 N-SH2 domain T42A
SHP2 N-SH2 domain T52S = target: SHP2 N-SH2 domain T52S
[2] = target: SHP2 N-SH2 domain wild-type

Measured: enrichment score
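Further: displayed peptides selected on beads carrying the immobilized SH2 domain, with library peptides lacking any tyrosine serving as negative controls.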

FLRKEYGGVNV [CBR3_Y81_L84V]
inactive: SHP2 C-SH2 domain E139D 0.554 | [1] 0.612 | SHP2 N-SH2 domain L43F 0.564 | SHP2 N-SH2 domain T42A 0.518 | SHP2 N-SH2 domain T52S 0.544 | [2] 0.642

VEGIGYDFIPT [CBS_Y308]
inactive: SHP2 C-SH2 domain E139D 0.859 | [1] 0.634 | SHP2 N-SH2 domain L43F 0.751 | SHP2 N-SH2 domain T42A 0.657 | SHP2 N-SH2 domain T52S 0.625 | [2] 0.963

VERIGYDFIPT [CBS_Y308_G305R]
inactive: SHP2 C-SH2 domain E139D 0.802 | [1] 0.69 | SHP2 N-SH2 domain L43F 0.767 | SHP2 N-SH2 domain T42A 0.689 | SHP2 N-SH2 domain T52S 0.743 | [2] 0.675

SGGGLYRDMGA [CBX8_Y321]
inactive: SHP2 C-SH2 domain E139D 0.581 | [1] 0.709 | SHP2 N-SH2 domain L43F 0.709 | SHP2 N-SH2 domain T42A 0.541 | SHP2 N-SH2 domain T52S 0.53 | [2] 0.567

ELETLYKKAVK [CC2D2A_Y381]
inactive: SHP2 C-SH2 domain E139D 0.741 | [1] 0.815 | SHP2 N-SH2 domain L43F 0.6 | SHP2 N-SH2 domain T42A 0.776 | SHP2 N-SH2 domain T52S 0.604 | [2] 0.787

ELTTCYRKKCS [CCBE1_Y70_C75S]
inactive: SHP2 C-SH2 domain E139D 2.1 | [1] 1.62 | SHP2 N-SH2 domain L43F 1.56 | SHP2 N-SH2 domain T42A 1.66 | SHP2 N-SH2 domain T52S 1.76 | [2] 1.34

LWKWKYEELKE [CCDC102B_Y299]
inactive: SHP2 C-SH2 domain E139D 1.36 | [1] 1.64 | SHP2 N-SH2 domain L43F 1.15 | SHP2 N-SH2 domain T42A 1.36 | SHP2 N-SH2 domain T52S 1.18 | [2] 1.66

GRLPEYNTPIA [CCDC151_Y542_R545P]
inactive: SHP2 C-SH2 domain E139D 0.731 | [1] 0.757 | SHP2 N-SH2 domain L43F 0.87 | SHP2 N-SH2 domain T42A 0.741 | SHP2 N-SH2 domain T52S 0.804 | [2] 0.744

TSQSQYSSFRE [CCDC170_Y323_F324S]
inactive: SHP2 C-SH2 domain E139D 0.314 | [1] 0.386 | SHP2 N-SH2 domain L43F 0.515 | SHP2 N-SH2 domain T42A 0.354 | SHP2 N-SH2 domain T52S 0.385 | [2] 0.442

AVNDFYAAKKT [CCDC178_Y422]
inactive: SHP2 C-SH2 domain E139D 0.953 | [1] 0.662 | SHP2 N-SH2 domain L43F 0.665 | SHP2 N-SH2 domain T42A 0.64 | SHP2 N-SH2 domain T52S 0.685 | [2] 0.847

AVNNFYAAKKT [CCDC178_Y422_D420N]
inactive: SHP2 C-SH2 domain E139D 0.708 | [1] 0.609 | SHP2 N-SH2 domain L43F 0.661 | SHP2 N-SH2 domain T42A 0.425 | SHP2 N-SH2 domain T52S 0.672 | [2] 0.656

RKQQLYIAMEE [CCDC39_Y593_T594I]
inactive: SHP2 C-SH2 domain E139D 1.03 | [1] 0.912 | SHP2 N-SH2 domain L43F 0.648 | SHP2 N-SH2 domain T42A 0.698 | SHP2 N-SH2 domain T52S 0.609 | [2] 0.481

AKLKDYYIFNK [CCDC42_Y149]
inactive: SHP2 C-SH2 domain E139D 0.649 | [1] 0.68 | SHP2 N-SH2 domain L43F 0.668 | SHP2 N-SH2 domain T42A 0.646 | SHP2 N-SH2 domain T52S 0.475 | [2] 0.397

TKLKDYYIFNK [CCDC42_Y149_A144T]
inactive: SHP2 C-SH2 domain E139D 1.22 | [1] 1.42 | SHP2 N-SH2 domain L43F 1.16 | SHP2 N-SH2 domain T42A 1.19 | SHP2 N-SH2 domain T52S 1.19 | [2] 1.18

TKLKDYFIFNK [CCDC42_Y149_A144T_YF]
inactive: SHP2 C-SH2 domain E139D 1.18 | [1] 1.02 | SHP2 N-SH2 domain L43F 0.913 | SHP2 N-SH2 domain T42A 0.813 | SHP2 N-SH2 domain T52S 0.985 | [2] 1.1

TFWKKYRTFWK [CCDC70_Y125]
inactive: SHP2 C-SH2 domain E139D 0.494 | [1] 0.366 | SHP2 N-SH2 domain L43F 0.275 | SHP2 N-SH2 domain T42A 0.501 | SHP2 N-SH2 domain T52S 0.581 | [2] 0.58

TFWKKYCTFWK [CCDC70_Y125_R126C]
inactive: SHP2 C-SH2 domain E139D 0.455 | [1] 0.492 | SHP2 N-SH2 domain L43F 0.423 | SHP2 N-SH2 domain T42A 0.613 | SHP2 N-SH2 domain T52S 0.567 | [2] 0.707

KRNSLYSFSDH [CCDC82_Y331_Q327R]
inactive: SHP2 C-SH2 domain E139D 0.835 | [1] 0.702 | SHP2 N-SH2 domain L43F 0.874 | SHP2 N-SH2 domain T42A 0.689 | SHP2 N-SH2 domain T52S 0.926 | [2] 0.738

REQREYLDQLN [CCDC88B_Y1277]
inactive: SHP2 C-SH2 domain E139D 0.722 | [1] 0.631 | SHP2 N-SH2 domain L43F 0.647 | SHP2 N-SH2 domain T42A 0.515 | SHP2 N-SH2 domain T52S 0.723 | [2] 0.603

REQREYLEQLN [CCDC88B_Y1277_D1279E]
inactive: SHP2 C-SH2 domain E139D 0.535 | [1] 0.876 | SHP2 N-SH2 domain L43F 0.392 | SHP2 N-SH2 domain T42A 0.649 | SHP2 N-SH2 domain T52S 0.778 | [2] 0.592

DLSEVYKPRRK [CCDC93_Y176]
inactive: SHP2 C-SH2 domain E139D 0.403 | [1] 0.233 | SHP2 N-SH2 domain L43F 0.305 | SHP2 N-SH2 domain T42A 0.155 | SHP2 N-SH2 domain T52S 0.501 | [2] 0.213

EYGRRYGFSRQ [CCDC93_Y209]
inactive: SHP2 C-SH2 domain E139D 0.254 | [1] 0.3 | SHP2 N-SH2 domain L43F 0.246 | SHP2 N-SH2 domain T42A 0.252 | SHP2 N-SH2 domain T52S 0.349 | [2] 0.278

EYGRRYGFSCQ [CCDC93_Y209_R213C]
inactive: SHP2 C-SH2 domain E139D 0.801 | [1] 0.913 | SHP2 N-SH2 domain L43F 0.645 | SHP2 N-SH2 domain T42A 0.644 | SHP2 N-SH2 domain T52S 0.58 | [2] 0.854

QMEKIYTQQIQ [CCNB1IP1_Y125]
inactive: SHP2 C-SH2 domain E139D 0.96 | [1] 1.05 | SHP2 N-SH2 domain L43F 0.909 | SHP2 N-SH2 domain T42A 1.11 | SHP2 N-SH2 domain T52S 0.885 | [2] 1.05

TVSSDYLHPQF [CCPG1_Y569_F566S_YF]
inactive: SHP2 C-SH2 domain E139D 0.528 | [1] 0.78 | SHP2 N-SH2 domain L43F 0.712 | SHP2 N-SH2 domain T42A 1.01 | SHP2 N-SH2 domain T52S 0.641 | [2] 0.809

INPIIYAFVGE [CCR5_Y297]
inactive: SHP2 C-SH2 domain E139D 0.801 | [1] 0.969 | SHP2 N-SH2 domain L43F 0.872 | SHP2 N-SH2 domain T42A 1.26 | SHP2 N-SH2 domain T52S 0.985 | [2] 1.01

INPIIYAFVGG [CCR5_Y297_E302G]
inactive: SHP2 C-SH2 domain E139D 1.29 | [1] 1.1 | SHP2 N-SH2 domain L43F 1.12 | SHP2 N-SH2 domain T42A 0.817 | SHP2 N-SH2 domain T52S 0.822 | [2] 1.41

INPIIYAFVVE [CCR5_Y297_G301V]
inactive: SHP2 C-SH2 domain E139D 0.828 | [1] 0.782 | SHP2 N-SH2 domain L43F 0.701 | SHP2 N-SH2 domain T42A 0.855 | SHP2 N-SH2 domain T52S 0.732 | [2] 0.956

RASSVYTRSTG [CCR5_Y339]
inactive: SHP2 C-SH2 domain E139D 0.341 | [1] 0.453 | SHP2 N-SH2 domain L43F 0.381 | SHP2 N-SH2 domain T42A 0.406 | SHP2 N-SH2 domain T52S 0.545 | [2] 0.297

RVSSVYTRSTG [CCR5_Y339_A335V]
inactive: SHP2 C-SH2 domain E139D 0.535 | [1] 0.483 | SHP2 N-SH2 domain L43F 0.708 | SHP2 N-SH2 domain T42A 0.406 | SHP2 N-SH2 domain T52S 0.778 | [2] 0.587

PEFVVYKPQME [CCRL2_Y170]
inactive: SHP2 C-SH2 domain E139D 0.908 | [1] 1.02 | SHP2 N-SH2 domain L43F 0.888 | SHP2 N-SH2 domain T42A 0.764 | SHP2 N-SH2 domain T52S 0.92 | [2] 1.05

PEFMVYKPQME [CCRL2_Y170_V168M]
inactive: SHP2 C-SH2 domain E139D 1.17 | [1] 1.18 | SHP2 N-SH2 domain L43F 0.967 | SHP2 N-SH2 domain T42A 0.842 | SHP2 N-SH2 domain T52S 1.01 | [2] 1.32

NSAFFYKTAEE [CCT6B_Y250_G247A]
inactive: SHP2 C-SH2 domain E139D 0.86 | [1] 0.959 | SHP2 N-SH2 domain L43F 1.12 | SHP2 N-SH2 domain T42A 0.93 | SHP2 N-SH2 domain T52S 1.04 | [2] 0.922

GTAPSYGNPSS [CD19_Y378]
inactive: SHP2 C-SH2 domain E139D 0.536 | [1] 0.537 | SHP2 N-SH2 domain L43F 0.447 | SHP2 N-SH2 domain T42A 0.496 | SHP2 N-SH2 domain T52S 0.51 | [2] 0.599

NFHRGYHLQVL [CD200R1L_Y138]
inactive: SHP2 C-SH2 domain E139D 1.23 | [1] 1.13 | SHP2 N-SH2 domain L43F 1.32 | SHP2 N-SH2 domain T42A 0.791 | SHP2 N-SH2 domain T52S 1.17 | [2] 1.12

NFRRGYHLQVL [CD200R1L_Y138_H135R]
inactive: SHP2 C-SH2 domain E139D 0.844 | [1] 0.561 | SHP2 N-SH2 domain L43F 0.711 | SHP2 N-SH2 domain T42A 0.646 | SHP2 N-SH2 domain T52S 0.923 | [2] 0.843

ISKTWYSAEQF [CD207_Y217_P213S]
inactive: SHP2 C-SH2 domain E139D 1.08 | [1] 0.972 | SHP2 N-SH2 domain L43F 0.835 | SHP2 N-SH2 domain T42A 0.839 | SHP2 N-SH2 domain T52S 1.05 | [2] 0.782
